# According to article PMC4336329 (PLoS ONE, 2015):
# Screen size: about 310,000 compounds; about 14,000 (4.5%) showed an effect of 50% or more. Effects have a minus sign here. The list shows a part of the results.
# Target: human ether-à-go-go-related gene (hERG) potassium channel (human, UniProt Q12809)
# Assay: primary screen, population patch clamp on CHO cells stably expressing hERG
# 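Note: peak tail current of the secondary pulse compared with the same well before compound.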
# Chain of human ether-à-go-go-related gene (hERG) potassium channel (Q12809 whole entry, looked up): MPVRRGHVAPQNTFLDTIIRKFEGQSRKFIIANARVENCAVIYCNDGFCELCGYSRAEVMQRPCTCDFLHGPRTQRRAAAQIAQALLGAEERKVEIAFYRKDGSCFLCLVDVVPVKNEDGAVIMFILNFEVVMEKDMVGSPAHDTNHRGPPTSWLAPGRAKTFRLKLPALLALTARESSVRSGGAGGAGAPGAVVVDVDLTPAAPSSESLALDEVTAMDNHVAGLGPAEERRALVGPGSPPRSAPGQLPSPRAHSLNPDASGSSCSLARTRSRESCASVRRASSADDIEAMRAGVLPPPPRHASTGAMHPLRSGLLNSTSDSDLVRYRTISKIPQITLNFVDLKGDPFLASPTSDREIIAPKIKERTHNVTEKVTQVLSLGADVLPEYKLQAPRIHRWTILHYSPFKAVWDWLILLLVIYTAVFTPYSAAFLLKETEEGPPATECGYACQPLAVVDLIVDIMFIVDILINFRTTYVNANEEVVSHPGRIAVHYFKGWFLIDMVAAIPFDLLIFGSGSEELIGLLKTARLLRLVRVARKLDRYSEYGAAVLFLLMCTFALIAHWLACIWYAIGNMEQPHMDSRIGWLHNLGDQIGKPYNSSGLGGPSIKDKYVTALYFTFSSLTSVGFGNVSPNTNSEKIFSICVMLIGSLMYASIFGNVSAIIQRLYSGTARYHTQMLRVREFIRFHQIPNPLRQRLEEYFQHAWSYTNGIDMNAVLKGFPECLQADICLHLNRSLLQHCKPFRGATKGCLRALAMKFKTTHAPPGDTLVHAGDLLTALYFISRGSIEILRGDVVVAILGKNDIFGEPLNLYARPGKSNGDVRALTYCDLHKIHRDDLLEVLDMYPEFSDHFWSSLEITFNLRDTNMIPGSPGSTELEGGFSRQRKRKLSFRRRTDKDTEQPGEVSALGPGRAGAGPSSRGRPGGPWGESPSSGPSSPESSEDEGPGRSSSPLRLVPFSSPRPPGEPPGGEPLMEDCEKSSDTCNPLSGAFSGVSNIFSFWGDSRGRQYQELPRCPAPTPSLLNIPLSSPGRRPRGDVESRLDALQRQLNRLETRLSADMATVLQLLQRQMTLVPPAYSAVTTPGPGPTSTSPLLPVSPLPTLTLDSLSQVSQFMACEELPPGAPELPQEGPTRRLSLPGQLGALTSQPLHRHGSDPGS
row,Compound,"hERG current change (%, negative = inhibition) at 10uM [%]"
1,C/C(CC(=O)Nc1ccccc1)=N\NC(=O)COc1ccc(C)cc1Br,2.14
2,COC(=O)c1[nH]c2ccc(Br)cc2c1NC(=O)Oc1ccccc1,18.6
3,O=C(CSc1n[nH]c(=O)n1C1CC1)N1N=C(c2ccc(Cl)cc2)CC1c1ccco1 (stereo not drawn),-14.9
4,Cc1ccc(C(=O)COC(=O)CN2C(=O)C3C4C=CC(C4)C3C2=O)cc1C (stereo not drawn),16.4
5,O=C(CN(CC1CCCO1)C(=O)CNS(=O)(=O)c1ccc(Cl)cc1)NCc1ccccc1 (stereo not drawn),-10.8
6,O=C(NC12CC3CC(CC(C3)C1)C2)c1cc([N+](=O)[O-])ccc1N1CCOCC1,-29.2
7,Cc1cc(C)cc(SCc2noc(C(=O)NCCCN3CCOCC3)c2C(=O)NCCCN2CCOCC2)c1,-30.4
8,O=C(O)c1cc(S(=O)(=O)NC(CO)C(O)c2ccc([N+](=O)[O-])cc2)ccc1Br (stereo not drawn),7.6
9,NS(=O)(=O)c1ccc(CCNC(=O)CSCc2ccccc2)cc1,-11.2
10,COc1ccc(-c2csc3ncnc(NCCN4CCOCC4)c23)cc1,-22.6
11,CC1=Nn2c(nnc2-c2ccccc2F)SC1,13.8
12,CN(C(=O)CSc1nc2ccccc2n1CCc1ccccc1)C1CCS(=O)(=O)C1 (stereo not drawn),-18.9
13,CC1(C)CCN(Cc2ccccc2)C1CC#N (stereo not drawn),1.57
14,CCOC(=O)CNC(=O)Cn1cnc2c(nnn2-c2ccccc2)c1=O,-9.92
15,N#CC(Cc1ccccc1)(Cc1ccccc1)C(=O)NN,8.09
16,COC(=O)C1CCN(CC(=O)NC(=O)NC2CCCCC2)CC1,4.61
17,COc1ccc2c(c1)cc(C(=O)N[C@H](C(=O)N1CCC(C(=O)O)CC1)C(C)C)n2C,27
18,CC(C)CCN1CCC(C)(NC(=O)c2ccccc2)C1=O (stereo not drawn),7.35
19,O=C(Cn1nc(C(F)(F)F)c2c1CCCC2)Nc1ccc2c(c1)OCO2,-4.34
20,COC(=O)Cn1nc(-c2ccccc2)c2cc(Cl)ccc21,-0.627
21,CCC(c1nnnn1Cc1ccc(OC)cc1)N1CCN(c2ccc(OC)cc2)CC1.Cl (stereo not drawn),-22.3
22,O=C(COC(=O)C1(c2ccccc2F)CCCC1)NCc1cccs1,-6.49

row,Compound,"hERG current change (%, negative = inhibition) at 10uM [%]"
1,c1ccc2c(c1)CCN(c1nc3cc4c(cc3s1)OCCO4)C2,12.4
2,Cc1cc(OC(C)C(=O)NCc2ccncc2)c2c(C)c(C)c(=O)oc2c1 (stereo not drawn),-37.4
3,CN(C)c1ccc(CNC(=O)C2CCN(S(=O)(=O)c3ccc4c(c3)CCCC(=O)N4)CC2)cc1,1.95
4,O=C(O)C(=O)O.c1ccc(CN2CCN(CCOCCOc3cccc4ccccc34)CC2)cc1,-43.3
5,CCc1nnc(NC(=O)CCN2C(=O)c3ccccc3C2=O)s1,-9.71
6,COc1ccc(CCn2nnnc2C(CC(C)C)N2CCN(c3ncccn3)CC2)cc1OC (stereo not drawn),0.573
7,CCCOc1ccccc1NC(=O)Nc1ccccc1Cl,16.6
8,CCN(CC)CCOC(=O)c1c(C)n(C)c2ccc(OC)cc12.Cl,-17.9
9,O=C(Nc1cccc(NC(=O)c2ccc(-c3cccc(Br)c3)o2)c1)c1ccco1,4.15
10,COc1ccccc1CNS(=O)(=O)c1ccc(S(=O)(=O)NC2CC2)cc1,15.3
11,O=C(C1CCCO1)N1N=C(c2ccc(Br)cc2)CC1c1ccco1 (stereo not drawn),-14.2
12,CC(=O)Nc1cccc(C(=O)OCC(=O)Nc2nnc(-c3ccccc3)o2)c1,-1.06
13,CC(=O)N/C(=C\c1cccs1)C(=O)O,31.6
14,O=C(Nc1nnc(-c2ccco2)o1)c1cccc(Cl)c1,24
15,COc1cc(CNc2cc(C)ccc2C)cc(OC)c1OC,-4.46
16,COc1ccccc1N1C(=O)CC(Sc2ccccc2N)C1=O (stereo not drawn),0.966
17,COc1ccc(NC(=O)Nc2c(C)n(C)n(-c3ccccc3)c2=O)c(OC)c1,23.1
18,COc1ccc(/C=C/C(=O)C23CC4CC(CC(C4)C2)C3)cc1CN1CCOCC1,-34.7
19,C[C@H](NC(=O)c1nc[nH]c1C(=O)NC1CCN(C(=O)OC(C)(C)C)CC1)C(=O)OCc1ccccc1,-34.4
20,O=C(c1ccc(Cl)cc1Cl)C1(n2cncn2)Oc2ccccc2C1O (stereo not drawn),-30.2
21,O=C(NCC1CCCN1S(=O)(=O)c1cccs1)C(=O)Nc1ccccc1 (stereo not drawn),-5.75
22,COc1ccc(CC(=O)Nc2cc(Cl)ccc2N2CCCC2)cc1,15.7

row,Compound,"hERG current change (%, negative = inhibition) at 10uM [%]"
1,O=C(Nn1cnnc1)c1ccccc1F,17
2,Cc1nc(C)c(C(=O)Nc2ccccc2)s1,-3.01
3,COCC(C)n1c(SCC(=O)NNC(=O)c2ccc(F)cc2)nc2ccccc2c1=O (stereo not drawn),-31.1
4,O=C(c1cccc(S(=O)(=O)N2CCN(c3ccccc3)CC2)c1)N1CCCC(C(F)(F)F)C1 (stereo not drawn),-17.5
5,C=CCOC(=O)C1=C(C)NC(SCC(=O)Nc2nccs2)=C(C#N)C1c1cccs1 (stereo not drawn),6.39
6,Cc1[nH]n(-c2ccccc2)c(=O)c1C=Nc1ccc(S(=O)(=O)NC(N)=O)cc1,-11.3
7,CCCN1CCN(CCCNC(=O)C2CCCN(c3nc4ccc(OCC)cc4s3)C2)CC1 (stereo not drawn),-56.7
8,CC(C)(C)OC(=O)N1CCC[C@H]1c1nnc(SCC(=O)Nc2ccc(Br)cc2)o1,-36.9
9,CO/N=C/C(C#N)=C/c1cc(C(=O)c2ccc(F)cc2)cn1C,10.5
10,Brc1ccccc1-c1nnc(-c2cccnc2)o1,-9.12
11,CC(=O)c1cccc(NC(=S)NNC(=O)c2ccco2)c1,24.9
12,O=C1N(C2CCCC2)C[C@@H]2C[C@@H](c3cccn3-c3nccs3)N3CCC[C@@]123,-66.6
13,Cc1ccc(S(=O)(=O)NC(=NC(C)C(=O)O)c2ccccc2)cc1 (stereo not drawn),8.71
14,CCOc1ccc(S(=O)(=O)Nc2ccc3c(c2)OCO3)cc1,-14.9
15,Cc1ccc(C(=O)NC(=S)Nc2ccc(N3CCOCC3)cc2)cc1C,-7.53
16,CCCn1c(SCC(=O)N2CCN(C(=O)c3ccco3)CC2)nc2ccccc2c1=O,-82.8
17,COc1ccc(N(C)C(=O)CCS(=O)(=O)c2cccc3nonc23)cc1,-6.8
18,COC(=O)CNC(=O)CSc1nnc(C)c(=O)[nH]1,6.35
19,Cn1c(CSc2nc3ccccc3s2)nnc1SCC(=O)NCCCN1CCOCC1,8.89
20,O=C(Nc1ccccc1)Nc1ccccc1-n1ccnc1,-18.2
21,CC(C)c1ccc(NC(=O)c2cccc(NC3=NC4CS(=O)(=O)CC4S3)c2)cc1 (stereo not drawn),-11.1
22,c1ccc2c(c1)Nc1ccncc1S2,-9

row,Compound,"hERG current change (%, negative = inhibition) at 10uM [%]"
1,CC(NC(=O)CN1C(=O)COc2ccccc21)c1ccccc1 (stereo not drawn),-4.45
2,N#Cc1cccc(CSc2nnc(CCCO)n2-c2ccccc2)c1,1.43
3,CCOc1ccc(CCNC(=O)Cn2cccc2C(=O)c2ccccc2C)cc1OCC,-19
4,Cl.O=C(c1ccc(Cl)cc1)C(CN1CCCCC1)c1ccccc1 (stereo not drawn),-45.9
5,CN(C)c1cccc(N(C)C)c1CNC(=O)C(C)(C)C,-1.08
6,CC(C)/C(=N\NC(=O)Nc1ccccc1)c1ccccc1,3.63
7,O=C1[C@@H]2Cc3c([nH]c4ccccc34)CN2C(=O)CN1CCO,19
8,CC(=O)N1c2ccc(S(=O)(=O)N3CCC(C(=O)N4CC(C)CC(C)C4)CC3)cc2CC1C (stereo not drawn),18.4
9,C=CCN(CC=C)S(=O)(=O)c1ccc(C(=O)Nc2nc3c(s2)CCc2ccccc2-3)cc1,2.35
10,COC(=O)c1cc(-c2ccc(NC(C)=O)cc2)nc2ccccc12,6.01
11,CN(C)c1nc(Nc2ccc(F)cc2)nc(Oc2ccc(F)cc2)n1,7.97
12,Cc1ccc(NC(=O)Nc2cccnc2)cc1NC(=O)Nc1cccnc1,11.4
13,Cc1ccc(CCN2CC(C(=O)NCCN(C)C)CC2=O)cc1 (stereo not drawn),16.5
14,COc1cc(F)cc(-c2ccc3c(c2)c(-c2cccs2)c(-c2cc(OC)cc(OC)c2)n3C)c1,8.79
15,COc1ccccc1CC(=O)Nc1ccc(-c2nnc(-c3ccco3)o2)cc1,1.45
16,O=C(CC1N=C2c3ccccc3N=C(SCc3ccc(F)cc3)N2C1=O)NCc1ccco1 (stereo not drawn),-73.9
17,Cc1ccc(NC(=O)CNc2ccccc2CN(C)C2CCCCC2)cc1,-59.1
18,Cc1cc(F)ccc1S(=O)(=O)Nc1ncnc2sc3c(c12)CCC3,13.1
19,CC(=O)NCCn1c(SCC(=O)NCc2ccco2)nc2ccccc2c1=O,-23.9
20,CCC1CCCCN1C1Sc2ccc(C(=O)OC)cc2NC1=O (stereo not drawn),-13.1
21,O=C(CCSc1ccc(Cl)cc1)NC1CCCC1,7.05
